# Among all 52,000 compounds or so, about 1,700 (3.3%) were called active. No stated cut-off is given here; in the data, active means survival mostly below about 52% (no sharp cut-off); inactive means mostly above about 56%. The list shows a part of the results.
# Tested on: Wild type
# Assay: growth inhibition of S. aureus wild type versus tarO mutant, primary screen, teichoic acid synthesis inhibitors, RN4220, OD600 (AID 463173)
# Settings: S. aureus RN4220 wild type/DeltatarO growth, OD600, 18 h, active compounds read low, screened at 18.75 µg/mL (by protocol)
row,SMILES,survival
1,CCC(=O)N1CCc2cc(S(=O)(=O)CCC(=O)N3CCN(c4ccc(Cl)cc4)CC3)ccc21,inactive: 64%
2,Cc1ccc(NC(=O)CN2CCN(S(=O)(=O)c3ccc(C(C)C)cc3)CC2)cc1F,inactive: 53%
3,OC1(c2cccc(C(F)(F)F)c2)CCN(c2ccc(-c3ccccc3)nn2)CC1,inactive: 106%
4,O=C1S/C(=C\c2ccccc2)C(=O)N1CN1CCOCC1,inactive: 125%
5,Cc1cn(C)c(CC(=O)N2CCN(c3cccc(Cl)c3)CC2)c1C(=O)O,inactive: 78%
6,COc1ccc(Nc2nc(N)nc(N)c2S(=O)(=O)c2ccccc2)cc1,inactive: 79%
7,O=c1c2ccccc2n(Cc2ccccc2Cl)c(=O)n1CCc1ccccc1,active: 15%
8,CCCN(CCC)C(=O)Cn1c(=O)n(-c2ccc(CC)cc2)c(=O)c2ccc(C(=O)NCCc3ccccc3)cc21,inactive: 81%
9,CCOC(=O)c1ccc(Nc2nc3ccc(C(=O)c4ccccc4)cc3n3c(C)nnc23)cc1,inactive: 120%
10,COc1cccc(NC(=O)CSC2=Nc3ccccc3C3=NC(CCC(=O)NCCc4ccccc4)C(=O)N23)c1 (configuration not stated),inactive: 49%
11,Cc1ccc(-n2cc(C(=O)Oc3cccc(C)c3)c3ccccc3c2=O)cc1,inactive: 97%
12,Cc1cccc(NC(=O)c2ccc3nc(C(C)C)oc3c2)c1C,inactive: 128%
13,CCCCCOc1ccc(Cn2c(=O)oc3ccccc32)cc1,inactive: 120%
14,COc1cc(Cl)c(NC(=O)CCS(=O)(=O)c2ccc3c(c2)NC(=O)CO3)c(OC)c1,inactive: 57%
15,O=C1CC(C(=O)Nc2ccccc2)C2(CCCC2)O1 (configuration not stated),inactive: 98%
16,Cc1ccc(NC(=O)C2CCCN(S(=O)(=O)c3ccc4c(c3)oc(=O)n4C)C2)cc1Cl (configuration not stated),inactive: 90%
17,CCOc1ccc(NC(=O)C(=O)c2cc(C)n(-c3cc(C)cc(C)c3)c2C)cc1,inactive: 127%
18,COc1ccc(-c2cc(C(=O)NCCc3ccccc3)c3c(-c4ccccc4)[nH]nc3n2)cc1OC,inactive: 153%
19,Cc1cc(C)nc(NNC(=O)c2ccccc2)n1,inactive: 98%

row,SMILES,survival
1,COc1ccc(CCNC(=O)c2ccc3c(c2)CCN3S(=O)(=O)c2ccc(C)cc2)cc1,inactive: 89%
2,CC(C)(C)c1ccc(-c2ncccc2O)cc1,inactive: 106%
3,CC(C)(C)OC(=O)N1CCC(c2c(C(=O)NC3CCN(Cc4ccccc4)CC3)cnn2-c2ccc(F)cc2F)CC1,active: -4%
4,COc1ccccc1CCNC(=O)C(=O)NCC(c1cccs1)S(=O)(=O)c1cccs1 (configuration not stated),inactive: 73%
5,COC(=O)CNc1cn[nH]c(=O)n1,inactive: 96%
6,Cc1ccc(/C=C/c2onc(C)c2S(=O)(=O)N2CCC(C(=O)Nc3cc(C)ccc3C)CC2)cc1,inactive: 68%
7,CC(C)(C)C(=O)NC1CCNCC1,inactive: 114%
8,O=C1C2CCCC1C(c1ccc3c(c1)OCO3)NC2c1ccc2c(c1)OCO2 (configuration not stated),inactive: 106%
9,CCOc1ccc(S(=O)(=O)Nc2cccc(-c3ccc(OCC)nn3)c2)cc1,inactive: 71%
10,Cc1cccc(NC(=O)c2c(C)cc(C)nc2SCC(=O)c2ccccc2)c1,inactive: 73%
11,Cc1cc(C)c2oc(C(=O)Nc3ccc(S(=O)(=O)N4CCCCCC4)cc3)cc(=O)c2c1,inactive: 72%
12,COc1ccc(S(=O)(=O)c2cn(C)c3ccc(C)cc3c2=O)cc1,inactive: 82%
13,O=C(Nc1ccc(F)cc1C(F)(F)F)C1CCN(c2ncccn2)CC1,inactive: 87%
14,Cc1cccc(NC(=O)COC(=O)CCCC2=NS(=O)(=O)c3ccccc3N2)c1,active: -4%
15,O=C(Nc1ccc(S(=O)(=O)N2CCCCC2c2cccnc2)cc1)c1ccc(Br)cc1 (configuration not stated),inactive: 73%
16,CCC1=Nc2cc(C(=O)NC3CCC(C)CC3)ccc2Sc2ccc(C)cc21 (configuration not stated),inactive: 29%
17,CCC1CN(C(=O)N2CCC(C(=O)NCc3cccc(OC)c3OC)CC2)c2cc(C)ccc2O1 (configuration not stated),inactive: 106%
18,CCOc1ccc(OCC)c(Nc2ccc3cc(S(=O)(=O)N4CCCC4)ccc3n2)c1,inactive: 72%
19,O=C(C1CCCN(S(=O)(=O)c2cccc3nsnc23)C1)N1CCN(c2ccccc2F)CC1 (configuration not stated),inactive: 68%

row,SMILES,survival
1,CCC(C)NC(=O)CSc1nc2n[nH]c(C)c2c(=N)n1-c1cc(Cl)ccc1C (configuration not stated),inactive: 72%
2,COc1ccccc1NC(=O)c1sc2nc(C)c(C(=O)Nc3ccc(C)cc3C)c(-c3ccco3)c2c1N,inactive: 73%
3,CC(C)c1ccc(NC(=O)c2ccc(F)c(S(=O)(=O)N3CCc4ccccc43)c2)cc1,inactive: 59%
4,COc1ccccc1CNC(=O)c1cc2sccc2n1Cc1ccc(Cl)cc1,inactive: 91%
5,COc1cccc(-c2noc(C3CC(=O)N(c4ccc(F)cc4)C3)n2)c1OC (configuration not stated),inactive: 81%
6,Cc1ccc(NC(=O)c2ccc3[nH]c(C)cc(=O)c3c2)cc1,inactive: 94%
7,CSc1cccc(NC(=O)c2cccc(N3CCCS3(=O)=O)c2)c1,inactive: 115%
8,CCc1ccc(NC(=O)CCn2c(=O)c3cccn3c3ccccc32)cc1,inactive: 73%
9,COc1ccc(NC(=O)CSc2ccc3nc(-c4ccccc4)cn3n2)c(OC)c1,inactive: 84%
10,Cc1ccccc1NC(=O)CSc1nc2ccc(NC(=O)c3cccs3)cc2s1,inactive: 98%
11,Cc1ccc(-n2nnnc2CNC(=O)c2cc(C(F)(F)F)cc(C(F)(F)F)c2)cc1C,active: -3%
12,CCN(CC)C(=O)c1cc2sccc2n1Cc1ccc(F)cc1,inactive: 132%
13,COc1cccc(CNC(=O)COc2cc(=O)n(C)c3ccccc23)c1,inactive: 66%
14,Cc1ccc(N2CCN(S(=O)(=O)c3cccc4ccccc34)CC2)cc1Cl,inactive: 126%
15,COc1cc(C2C(C(=O)c3ccco3)=C(O)C(=O)N2CCc2ccccc2)ccc1O (configuration not stated),inactive: 96%
16,COc1ccccc1S(=O)(=O)Cc1ccc(C(=O)NCc2ccc(Cl)cc2)o1,inactive: 75%
17,COc1ccc(S(=O)(=O)Nc2ccc(-c3cn4c(C)csc4n3)cc2)cc1,inactive: 78%
18,COc1ccc(-n2ncc3c(NC4CCCC4)ncnc32)cc1,inactive: 129%
19,O=C(Nc1cccc(C(F)(F)F)c1)c1cc(CN2CCOCC2)on1,inactive: 129%
